The campaign covered roughly 310,000 compounds. About 2,200 (0.71%) showed an effect of 50% or more. The effect is printed as a negative number. This is one part of the list.
Biological target: human ether-à-go-go-related gene (hERG) potassium channel (human, UniProt Q12809)
Experiment: primary screen, population patch clamp on CHO cells stably expressing hERG

Chain of human ether-à-go-go-related gene (hERG) potassium channel (Q12809 whole entry, looked up): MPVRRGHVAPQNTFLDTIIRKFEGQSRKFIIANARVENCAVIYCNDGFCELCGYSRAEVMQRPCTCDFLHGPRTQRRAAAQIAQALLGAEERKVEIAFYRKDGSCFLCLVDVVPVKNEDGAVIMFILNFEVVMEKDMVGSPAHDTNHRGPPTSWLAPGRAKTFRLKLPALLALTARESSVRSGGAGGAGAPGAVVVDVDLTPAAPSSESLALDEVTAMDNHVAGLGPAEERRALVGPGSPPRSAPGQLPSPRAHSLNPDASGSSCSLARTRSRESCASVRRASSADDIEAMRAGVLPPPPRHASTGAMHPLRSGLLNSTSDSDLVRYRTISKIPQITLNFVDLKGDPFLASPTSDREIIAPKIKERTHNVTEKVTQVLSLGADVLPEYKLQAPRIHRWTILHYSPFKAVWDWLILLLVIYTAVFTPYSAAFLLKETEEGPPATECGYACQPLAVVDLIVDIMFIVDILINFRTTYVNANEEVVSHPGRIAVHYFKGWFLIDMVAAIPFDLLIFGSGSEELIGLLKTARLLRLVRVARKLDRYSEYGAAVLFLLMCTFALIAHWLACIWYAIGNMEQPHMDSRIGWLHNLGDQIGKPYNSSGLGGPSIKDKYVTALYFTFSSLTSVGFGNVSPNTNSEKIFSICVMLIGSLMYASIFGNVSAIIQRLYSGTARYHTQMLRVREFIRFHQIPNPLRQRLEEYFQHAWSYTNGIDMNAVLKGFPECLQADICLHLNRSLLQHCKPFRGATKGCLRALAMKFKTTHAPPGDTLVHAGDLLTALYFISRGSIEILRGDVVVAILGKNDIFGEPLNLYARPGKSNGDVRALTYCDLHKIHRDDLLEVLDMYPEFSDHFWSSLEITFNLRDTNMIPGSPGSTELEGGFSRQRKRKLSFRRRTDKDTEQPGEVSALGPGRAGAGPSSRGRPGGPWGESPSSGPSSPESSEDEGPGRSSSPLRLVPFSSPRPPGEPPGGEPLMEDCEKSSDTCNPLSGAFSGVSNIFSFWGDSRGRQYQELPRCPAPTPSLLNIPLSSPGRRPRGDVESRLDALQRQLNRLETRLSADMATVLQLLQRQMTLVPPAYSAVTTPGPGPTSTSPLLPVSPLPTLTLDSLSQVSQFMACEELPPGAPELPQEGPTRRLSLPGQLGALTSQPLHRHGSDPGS

SMILES	hERG current change (%, negative = inhibition) at 1uM [%]
COC(=O)c1ccc(OC(=O)c2ccccn2)cc1	8.57
COc1ccc(C(=O)NC(=S)Nc2ccccc2[N+](=O)[O-])cc1OC	13.3
COC(=O)/C=c1/s/c(=C(/C#N)C(=O)N2CCCCC2)n(-c2ccccc2)c1=O	9.76
O=C1CSC(c2cccnc2)N1c1ccc(Cl)cc1 (stereo not drawn)	8.11
O=C(c1sc2ccccc2c1Cl)N1CCN(c2ccc(F)cc2)CC1	8.08
Cn1c(SCc2ccccc2Br)nc2ccccc2c1=O	12.1
OCC[C@H]1C[C@@H](O)[C@H](O)[C@]2(CCCO2)O1	3.64
O=C(Cc1csc(Nc2nc(=S)[nH]c3ccccc23)n1)N1CCN(c2cccc(C(F)(F)F)c2)CC1	-3.22
COCCN(CC(=O)NCc1ccccc1)C(=O)CCC(=O)Nc1nccs1	13.6
O=C1CN(C(=O)C2CC2)c2ccccc2N1	-7.98
O=C(CSc1ccc(-c2ccccn2)nn1)c1ccccc1	10.6
COc1ccc(/C=C/C(=O)OCC(=O)Nc2ccc(N3CCOCC3)cc2)cc1	32.9
O=C(NC1CCCCC1)c1cc(-c2ccccn2)nc2ccccc12	21.6
O=S(=O)(NCC1CCCO1)c1cc(Cl)ccc1Cl (stereo not drawn)	12.8
Cc1ccccc1NC(=O)NCc1cccnc1	9.99
O=c1oc2ccc(Cl)cc2nc1/C=C(\O)c1cccs1	6.68
Cl.OCCNCc1cc(Br)ccc1OCc1ccc(Cl)cc1	-11.7
O=C(NC1C(=O)NNC1c1ccc(Cl)cc1)c1ccc(F)cc1 (stereo not drawn)	7.07
Cc1cc(C(=O)NCc2ccccc2Cl)n(-c2ccccc2)n1	-5.63

SMILES	hERG current change (%, negative = inhibition) at 1uM [%]
CCCN1C(=O)c2cc(C(=O)NCCc3cccc(C)c3)ccc2C1O (stereo not drawn)	0.502
Cl.NS(=O)(=O)c1ccc(CCNCC#Cc2ccccc2)cc1	10.5
COc1ccccc1C(=O)N(Cc1nc(-c2ccc(Cl)cc2)no1)C(C)C	9.86
Cc1nn(-c2ccccc2)c(Cl)c1C(=O)Nc1c(C)n(C)n(-c2ccccc2)c1=O	11.3
O=C1CC(c2ccc(Cl)cc2)n2nc(NS(=O)(=O)c3ccc(F)cc3)nc2N1 (stereo not drawn)	14.7
CN(C)S(=O)(=O)c1cc(NC(=O)c2cc(=O)c3ccccc3o2)ccc1Cl	8.72
O=C1c2ccccc2NC(c2ccc(-c3ccc(F)cc3)o2)N1O (stereo not drawn)	-3.08
C[C@H](NC(=O)c1nc[nH]c1C(=O)N[C@@H](C)C(=O)OC(C)(C)C)C(=O)OC(C)(C)C	15.1
COc1ccc(NC(=O)C2=CN3CCS(=O)(=O)N=C3C=C2)c(OC)c1	10.9
CCOc1c(O)ccc(C2NC(=O)N(C)C(C)=C2C(=O)OC)c1[N+](=O)[O-] (stereo not drawn)	-1.47
CCCCN(C(=O)Nc1ccc(Cl)cc1)C1CCN(C(C)=O)CC1	-19.1
CSc1cccc(NC(=O)/C=C/c2ccccc2)c1	7.15
Nc1nc(Cl)nc2ncn(Cc3ccccc3)c12	19
NC(=O)OCCCc1ccccc1	10.5
Cc1ccc(/C=N\NC(=O)CNC(=O)C23CC4CC(CC(C4)C2)C3)o1	7.18
O=C(COC(=O)CCc1nc2ccccc2s1)Nc1ccc(Cl)cn1	11
CN(C(=O)c1ccc(F)cc1)c1ccccc1C(=O)NCc1ccccc1	12
CCOc1ccc(S(=O)(=O)Nc2cccc(C(=O)NCC3(N4CCCCC4)CCCCC3)c2)cc1	-30.5
O=C(/C=C/c1ccc(-c2ccccc2[N+](=O)[O-])o1)c1ccc(Br)cc1	-5.23

SMILES	hERG current change (%, negative = inhibition) at 1uM [%]
Cc1ccn2c(Nc3ccc4c(c3)OCO4)c(-c3ccc(O)cc3)nc2c1	0.891
O=C(NCc1ccc(Cl)cc1)c1ccc(OCC2CCCO2)cc1 (stereo not drawn)	11.7
CCOC(=O)Cc1c[nH]c(=S)[nH]c1=O	14.3
CC(=O)Nc1ccc(Sc2ncccc2C(=O)Nc2ccc(OC(F)(F)F)cc2)cn1	-3.71
O=C(NCc1ccco1)c1ccc(S(=O)(=O)N2CCCCC2)cc1	10
COc1cccc(CN2C(=NC(=O)C3CC3)SC3CS(=O)(=O)CC32)c1 (stereo not drawn)	14.8
CCc1ccccc1NC(=O)Nn1cnnc1	8.05
Cc1cc(-n2c(C)cc(C(=O)CSc3nc(N)cc(=O)[nH]3)c2C)no1	9.5
COc1ccc(C(CC(=O)N2CCCC2)c2c(OC)cc(OC)c3c(-c4ccccc4)cc(=O)oc23)cc1 (stereo not drawn)	18.8
CN(Cc1ccon1)Cc1cn(Cc2ccccc2)nc1-c1ccc2c(c1)OCO2	-2.81
Cc1nn(-c2ccccc2)c2c1/C(=N/O)CC(C)(C)C2	-15
C/C(=N\NC(=O)C1CC1)c1ccc(OC(F)F)cc1	5.86
Cc1cc(CN(C)C)c(OC(=O)N(C)C)cc1C.Cl	13.8
N#CCOc1ccccc1/C=C/c1nc2ccccc2c(=O)[nH]1	15.3
O=C(Nc1ccc2c(c1)OCO2)c1cnn2c1NC(c1ccco1)CC2C(F)(F)F (stereo not drawn)	8.91
CC(=O)Cc1nsc(NC(=O)c2ccc(-c3ccc(Cl)cc3Cl)o2)n1	23.1
Cc1ccc(-c2nn(-c3cccc(F)c3)cc2CNCCc2ccncc2)o1	3.43
CC(=O)Nc1ccc2c(CN3C(=O)NC(C)(c4ccc(C)cc4)C3=O)cc(=O)oc2c1 (stereo not drawn)	13.5
CC(=O)N1CCN(S(=O)(=O)c2cccc(C(=O)NNC(=O)Cn3nc(C)cc3C)c2)CC1	15.8

— paper PMC4336329 (PLoS ONE, 2015)
